Data published in the supplement of paper PMC4967469.

Tests used:
Experiment in all cases: Viability of human cancer cell lines after 72 h of drug (GDSC screen)
Sorafenib = compound: CNC(=O)c1cc(Oc2ccc(NC(=O)Nc3ccc(Cl)c(C(F)(F)F)c3)cc2)ccn1 [Sorafenib]; conditions: top dose 4 µM
Method: (§1)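 Human cancer cell lines in 384-well plates, medium with 10% serum, drug for 72 h over a 256-fold dose range (nine 2-fold or five 4-fold steps up to the top dose). Adherent lines were fixed and stained with the nucleic acid dye Syto60, suspension lines read with resazurin; signal relative to control wells, capped at 0 and 100%. One two-parameter sigmoid per drug and line, fitted in a mixed model over all curves with the slope shared within a line.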

A-443654 = compound: Cc1n[nH]c2ccc(-c3cncc(OC[C@@H](N)Cc4c[nH]c5ccccc45)c3)cc12 [A-443654]; conditions: top dose 1.024 µM; top dose inferred
Method: as §1

FH535 = compound: Cc1cc([N+](=O)[O-])ccc1NS(=O)(=O)c1cc(Cl)ccc1Cl [FH535]; conditions: top dose 32 µM; top dose inferred
Method: as §1

AT-7519 = compound: O=C(NC1CCNCC1)c1n[nH]cc1NC(=O)c1c(Cl)cccc1Cl [AT-7519]; conditions: top dose 10.24 µM; top dose inferred
Method: as §1

XMD14-99 = compound: COc1cc(N2CCN(C)CC2)ccc1Nc1nc(N)c(C(=O)c2c(Cl)cccc2Cl)s1 [XMD14-99]; conditions: top dose 10.24 µM; top dose inferred
Method: as §1

Dasatinib = compound: Cc1nc(Nc2ncc(C(=O)Nc3c(C)cccc3Cl)s2)cc(N2CCN(CCO)CC2)n1 [Dasatinib]; conditions: top dose 1.28 µM
Method: as §1

Cell Line | AUC (Sorafenib) | IC50 (Sorafenib) [nM] | AUC (A-443654) | IC50 (A-443654) [nM] | AUC (FH535) | IC50 (FH535) [nM] | AUC (AT-7519) | IC50 (AT-7519) [nM] | AUC (XMD14-99) | IC50 (XMD14-99) [nM] | AUC (Dasatinib) | IC50 (Dasatinib) [nM]
PF-382 (T-cell lymphoblastic leukaemia, suspension) | 0.927 | > 4000 | 0.855 | 659 | 0.729 | 8110 | 0.251 | 139 | 0.964 | > 10200 | 0.612 | 156
Daudi (Burkitt lymphoma, suspension) | 0.866 | 2830 | 0.683 | 193 | 0.42 |  | 0.772 | 3460 | 0.961 | > 10200 | 0.884 | 1080
LB996-RCC (kidney, adherent) | 0.86 | > 4000 | 0.606 | 132 | 0.681 | 7030 | 0.944 | > 10200 | 0.983 | > 10200 | 0.255 | 14
NCI-H510A (small cell lung carcinoma, semi-adherent) | 0.856 | 2820 | 0.717 | 248 | 0.821 | 16600 | 0.99 | > 10200 | 0.974 | > 10200 | 0.942 | > 1280
AM-38 (glioma, semi-adherent) | 0.97 | > 4000 | 0.978 | > 1020 | 0.821 | 19100 | 0.845 | 7650 | 0.974 | > 10200 | 0.974 | > 1280

A lower IC50 marks a more sensitive line; a limit (>, <) means that the fit lies beyond the doses tested. The AUC spans the tested range (256-fold, ending at the top dose) of the same fit; it is 1 without any effect and falls as sensitivity rises. For some assays here: Any top dose called inferred comes from the curve model; the source does not state it.
